Assay results published in PubChem BioAssay AID504706 (National Center for Advancing Translational Sciences (NCATS), 2011).
The whole screen tested about 320,000 compounds, of which about 200 (0.062%) were called active. This list was built around the results that the source calls inconclusive (neither active nor inactive); the mix of calls is not that of the screen. Calls follow the shape of the dose curve; as a rule, active = well fitted activation curve with a large enough effect; inconclusive = small, poorly fitted or top-dose-only effect; inactive = no such curve, though single readings can be large or run the other way. No potency is given beside an inconclusive call; the fits are too rough.

experiment: qHTS assay for re-activators of p53 using a Luc reporter; conditions: H1299 p53-A138V BP100-luciferase reporter, luminescence, 24 h; series mostly up to 92.2 µM; also: nearly all actives have a fitted effect of over 45% in size
Method in brief: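 p53-null H1299 cells stably carrying temperature-sensitive p53-A138V and a BP100-luciferase reporter were pinned with compounds (4-point, 1:5 series) and held 24 hrs at 37 deg C. Luminescence was read 10 min after detection reagent.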
Potency is read from the fitted curve at half-maximal effect; tags tell the direction and shape of the fitted curve.

Row | Structure (SMILES) | Potency
1 | CCc1nnc(SCC(=O)Nc2ccccc2Cl)nc1CC | inactive
2 | Cc1cc(Cl)ccc1NC(=O)CSc1n[nH]c(N)n1 | inconclusive [activator, single point]
3 | Cc1ccc(NC(=O)N2CCCC(c3ccccc3)C2)cc1 (configuration not stated) | inactive
4 | C1=C(c2ccc(-c3ccccc3)cc2)Nc2ncnn2C1c1ccco1 (configuration not stated) | inconclusive [activator, full curve, poor fit]
5 | COc1ccc(C(=O)Nc2nnc(-c3ccco3)s2)cc1 | inconclusive [activator, full curve, poor fit]
6 | Cc1ccnc(NC(=O)CCc2c[nH]c3ccccc23)c1 | inconclusive [activator, partial curve, poor fit]
7 | CC(=O)Nc1c([N+](=O)[O-])cc(C)c(Cl)c1[N+](=O)[O-] | inconclusive [activator, full curve, poor fit]
8 | Cc1ccc(NC(=O)Cn2c(O)c(N=NC(N)=S)c3ccccc32)cc1 | inactive
9 | CCN(CC)c1nc(-c2cccc(OC)c2O)nc2ccccc12 | inconclusive [activator, single point]
10 | CN(CC(=O)Nc1ccc(N2CCOCC2)cc1)CC(=O)Nc1cccc(C#N)c1 | inactive
11 | Cc1ccc(C2CCN(C(=O)Nc3ccccc3)C2)cc1 (configuration not stated) | inconclusive [activator, partial curve, poor fit]
12 | O=C(OCc1nc2ccccc2s1)c1cccc(S(=O)(=O)N2CCOCC2)c1 | inconclusive [activator, partial curve, poor fit]
13 | O=C(N/N=C/c1ccc([N+](=O)[O-])cc1)c1cccc2cc[nH]c12 | inactive
14 | CCc1nnc(NC(=O)C2CCCN(C(=O)c3ccc(Cl)cc3)C2)s1 (configuration not stated) | inconclusive [activator, full curve, poor fit]
15 | CCOC(=O)c1cccc(NC(=O)Cn2c(CC(=O)N3CCCC3)nc3ccccc32)c1 | inactive
16 | O=C1NN=COc2ccccc21 | inactive
17 | O=C(Nc1nc2ccc(Cl)cc2s1)c1ccco1 | inconclusive [activator, partial curve, poor fit]
18 | CC(C)C(=O)Nc1nnc(S(=O)(=O)N2CCCCCC2)s1 | inactive
19 | NS(=O)(=O)c1cc(C2(O)NC(=O)c3ccccc32)ccc1Cl (configuration not stated) | inactive
20 | COc1ccccc1NC(=O)C1CCN(C(=O)c2ccc(C(C)(C)C)cc2)CC1 | inconclusive [activator, partial curve, poor fit]
21 | CCOC(=O)CC(=O)CSc1nc2c(cc1C#N)CCCCC2 | inconclusive [activator, full curve, poor fit]
22 | C/C(CCc1ccc2c(c1)OCO2)=N\NC(=O)c1ccccc1 | inconclusive [activator, partial curve, poor fit]
23 | C=CCc1c(C)nc(SC)nc1Nc1ccc(C(=O)O)cc1 | inactive
24 | COc1ccc(N/C=C2/CCCCC2=O)cc1 | inconclusive [activator, partial curve, poor fit]

Row | Structure (SMILES) | Potency
25 | O=C(Nc1ccc(-c2nc3ccccc3s2)c(O)c1)C1=COCCO1 | inconclusive [activator, partial curve, poor fit]
26 | CCCCCC(=O)Nc1c(-c2cccs2)c(=O)c2ccccc2n1C | inactive
27 | O=C(Nc1cccc(O)c1)c1ccc(Br)cc1 | inconclusive [activator, partial curve, poor fit]
28 | COc1ccc(-c2cccc(NS(=O)(=O)c3ccccc3[N+](=O)[O-])c2)nn1 | inactive
29 | COc1ccccc1NC(=O)c1cc(S(=O)(=O)NCc2ccccc2)ccc1F | inactive
30 | O=C(O)c1ccc(N=NN2CCCC2)cc1 | inconclusive [activator, full curve, poor fit]
31 | N/C(=N\OC(=O)Cc1cccs1)c1cccc([N+](=O)[O-])c1 | inconclusive [activator, partial curve, poor fit]
32 | C[C@@H]1COC(=O)[C@@H](Cc2ccc(F)cc2)C/C=C\C[C@H](CC(=O)N(CCO)Cc2ccccc2)C(=O)N1 | inactive
33 | CC(OC(=O)c1cc(O)c2ccccc2c1O)C(=O)Nc1ccc(C(N)=O)cc1 (configuration not stated) | inactive
34 | Cc1cc(C)c2cc(C#N)c(N3CCCN(C(=O)c4cnccn4)CC3)nc2c1 | inactive
35 | Cc1nc2ccc(NC(=O)c3ccco3)cc2s1 | inactive
36 | Cc1ccccc1C(=O)Nc1ccccc1 | inconclusive [activator, partial curve, poor fit]
37 | COc1ccc(C(=O)NC(=O)Nc2ncccc2C)cc1 | inconclusive [activator, full curve, poor fit]
38 | Cc1nc2cc(Cl)c(Cl)cc2nc1C | inconclusive [activator, full curve, poor fit]
39 | O=c1cc(-c2ccccc2)nc2cc(-c3ccco3)[nH]n12 | inconclusive [activator, full curve, poor fit]
40 | CCc1ccccc1OCC(=O)Nc1ccc2c(c1)OCCO2 | inconclusive [activator, partial curve, poor fit]
41 | Cc1cc2c(N)cccc2nn1 | inactive
42 | O=C(c1ccc2nc(Cc3cccc(Cl)c3)oc2c1)N1CCC(O)CC1 | inactive
43 | Cn1c(=O)c(-c2ccccc2)nn2c3ccccc3nc12 | inconclusive [activator, single point]
44 | CCn1ccnc1CN(C)Cc1cn(-c2ccccc2)nc1-c1ccc(OC)cc1F | inactive
45 | N/C(=N\c1nc2ccccc2o1)NC(=O)c1ccc(F)cc1 | inconclusive [activator, partial curve, poor fit]
46 | Cc1ccc(-n2cc(C(=O)c3ccc(F)cc3)nn2)cc1Cl | inconclusive [activator, full curve, poor fit]
47 | O=C(Nc1nnc(Cc2ccccc2)s1)c1cccs1 | inconclusive [activator, partial curve, poor fit]
